Measurements published in publication PMC4336329 (PLoS ONE, 2015).
The whole screen tested about 310,000 compounds, of which about 2,200 (0.71%) showed an effect of 50% or more. The effect is printed as a negative number. The list shows a part of the results.

Target: human ether-à-go-go-related gene (hERG) potassium channel (human, UniProt Q12809)
Assay: primary screen, population patch clamp on CHO cells stably expressing hERG

Sequence of human ether-à-go-go-related gene (hERG) potassium channel (Q12809 whole entry, looked up): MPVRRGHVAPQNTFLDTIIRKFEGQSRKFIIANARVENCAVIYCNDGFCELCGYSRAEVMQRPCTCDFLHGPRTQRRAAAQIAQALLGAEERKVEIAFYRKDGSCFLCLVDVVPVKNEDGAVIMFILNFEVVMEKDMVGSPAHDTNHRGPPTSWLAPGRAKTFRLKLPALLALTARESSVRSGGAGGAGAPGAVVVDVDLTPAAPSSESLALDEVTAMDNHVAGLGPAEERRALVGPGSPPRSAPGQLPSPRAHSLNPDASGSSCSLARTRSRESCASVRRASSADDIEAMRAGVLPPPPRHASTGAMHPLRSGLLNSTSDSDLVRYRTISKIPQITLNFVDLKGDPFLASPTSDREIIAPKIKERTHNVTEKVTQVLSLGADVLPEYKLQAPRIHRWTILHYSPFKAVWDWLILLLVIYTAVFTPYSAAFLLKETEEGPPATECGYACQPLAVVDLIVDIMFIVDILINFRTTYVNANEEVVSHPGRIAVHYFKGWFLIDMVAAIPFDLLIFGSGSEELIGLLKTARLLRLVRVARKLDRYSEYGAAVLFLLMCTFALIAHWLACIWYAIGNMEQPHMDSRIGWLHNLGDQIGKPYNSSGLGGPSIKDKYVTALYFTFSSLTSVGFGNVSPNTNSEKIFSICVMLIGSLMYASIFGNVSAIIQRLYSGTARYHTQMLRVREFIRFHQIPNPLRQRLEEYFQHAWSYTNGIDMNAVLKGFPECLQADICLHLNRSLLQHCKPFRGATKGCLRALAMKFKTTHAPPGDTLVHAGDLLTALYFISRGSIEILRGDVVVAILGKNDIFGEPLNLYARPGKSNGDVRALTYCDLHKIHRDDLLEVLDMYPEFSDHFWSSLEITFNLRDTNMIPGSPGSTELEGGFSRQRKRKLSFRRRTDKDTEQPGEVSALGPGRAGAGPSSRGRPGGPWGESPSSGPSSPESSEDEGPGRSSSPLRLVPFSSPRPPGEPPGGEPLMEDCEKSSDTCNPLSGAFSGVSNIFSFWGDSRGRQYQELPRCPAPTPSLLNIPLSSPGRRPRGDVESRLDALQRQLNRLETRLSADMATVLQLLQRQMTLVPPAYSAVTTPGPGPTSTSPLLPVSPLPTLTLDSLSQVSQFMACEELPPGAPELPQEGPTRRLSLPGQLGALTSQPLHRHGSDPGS

SMILES	hERG current change (%, negative = inhibition) at 1uM
CCC(CC)C(=O)Nc1cccc(C(=O)Nc2nccs2)c1	19.2%
CC(=O)NC1=NN(C(C)=O)C(c2ccco2)S1 (centres unmarked)	16.5%
Cc1cccc(-c2nc(CN3CCCC(C(=O)NC4CCCC4)C3)c(C)o2)c1 (centres unmarked)	-26.4%
COCCn1c(SCC(=O)Nc2ccc(Cl)cn2)nc2ccccc21	-9.42%
CCCOc1ccc(-c2nc(C#N)c(N3CCN(CC)CC3)o2)cc1	1.77%
COc1ccc(S(=O)(=O)Nc2nc3c(s2)C(=O)CC(C)(C)C3)cc1	5.18%
Cc1cc(NC(=O)CSc2nc3c(c(=O)n2C)SCC3)no1	11.5%
Cc1ccc(C(C)NC(=O)c2ccco2)cc1 (centres unmarked)	1.87%
Cc1ccc2nc(NCC(N)=O)nc(-c3ccccc3)c2c1	7.6%
COc1ccc(NC(=O)CSCC(=O)Nc2ccccc2N2CCCC2)cc1	10.3%
CS(=O)(=O)N1CCCC(C(=O)NCc2ccc(F)cc2)C1 (centres unmarked)	6.57%
Cc1ccccc1C(=O)Nc1cccc(NC(=O)c2ncn[nH]2)c1	13.8%
O=C1/C(=C/c2ccccc2O)SC(=S)N1Cc1cccnc1	8.52%
CCS(=O)(=O)N1CCC(C(=O)Oc2ccc(C)c(C)c2)CC1	16.3%
CC12CCC(=O)N1C(C(=O)OCC(=O)Nc1cccc(Br)c1)CS2 (centres unmarked)	-1.7%
COc1cc(OC)cc(-c2nnc(SCc3c(F)cccc3Cl)o2)c1	6.61%
CCc1ccccc1NC(=O)c1cc([N+](=O)[O-])ccc1N1CCOCC1	1.7%
O=C(CC(c1ccccc1)c1ccccc1)Nc1ccc2c(c1)OCCO2	-0.171%
COc1ccc(NC(=O)CN(C)C(=O)c2ccc(N3CCCCC3)c([N+](=O)[O-])c2)cc1	-21.2%
CCCc1nc2ccccc2c(=O)n1CC(=O)c1ccc(F)cc1	10.5%
O=C(N/N=C/C1C(c2ccccc2)C1(Cl)Cl)c1cccc(Cl)c1 (centres unmarked)	7.97%
CN(CC(=O)Nc1ccc(Cl)c(Cl)c1)Cc1nnc(-c2ccc(F)cc2)o1	0.919%
CC(C)C(=O)Nc1cccc(-c2cnc3ccccc3n2)c1	11.7%

SMILES	hERG current change (%, negative = inhibition) at 1uM
COc1ccc(NC(=S)NC(=O)/C=C/c2ccccc2)cc1	10.6%
Cc1cccc(OCC(=O)N2CCN(S(C)(=O)=O)CC2)c1	9.87%
Cc1ccc(C(=O)NCC(=O)OCn2nnc3ccccc3c2=O)cc1	10%
COc1ccc(C(=O)COC(=O)Cc2n[nH]c(=O)c3ccccc23)c(OC)c1	13.1%
CCCn1c(NCc2c[nH]c3ccccc23)nc2ccccc21	1.35%
O=C(NCCO)C(=O)Nc1cc2c3c(c1)CCC(=O)N3CCC2	3.17%
COc1ccc(S(=O)(=O)Nc2c(C(=O)O)[nH]c3ccccc23)cc1	9.01%
CCOC(=O)C1(Cc2cccc(Cl)c2)CCCN(C(=O)c2occc2C)C1 (centres unmarked)	10.3%
COc1ccc(NC2CCCN(C(=O)CCCn3cncn3)C2)cc1OC (centres unmarked)	7.19%
CC(C)c1ccccc1NC(=O)CNC(C)c1ccc(F)cc1 (centres unmarked)	10.6%
COc1ccc(NS(=O)(=O)c2cccc(C(=O)NNC(=O)c3ccc(O)c(Cl)c3)c2)cc1	9.47%
COc1ccc(Nc2cc(C(=O)NCc3cccnc3)c3ccccc3n2)c(OC)c1	11.3%
COc1ccc(CNC(=O)CSc2nc3ccc(N)cc3s2)cc1	11.8%
Cc1c(OCC(=O)N(C)c2ccccc2)ccc2c3c(c(=O)oc12)CCC3	5.87%
CCOC(=O)C(CC)/C(C)=N\NC(=O)CCC(=O)Nc1ccc(Cl)cc1Cl (centres unmarked)	5.13%
Cc1cc(C)c2[nH]c(=O)c(C(c3nnnn3CC3CCCO3)N3CCC(C)CC3)cc2c1 (centres unmarked)	2.18%
O=C(NCC(=O)N1CCN(c2ccccc2)CC1)c1ccc(Br)o1	-7.83%
Cc1cc(Nc2ccc(Br)cc2)nc(-c2ccccc2O)n1	13.3%
O=[N+]([O-])[N-][n+]1cnn(Cc2ccccc2)c1	9.94%
CN(Cc1c(F)cccc1Cl)C(=O)c1cc2ccccc2o1	3.98%
COc1cc(NC(=O)C/C(C)=N/NC(=O)Cc2ccccc2)c(OC)cc1Cl	9.76%
C=CC[N+](C)(C)C/C(Cl)=C(\Cl)c1ccccc1.[Br-]	3.15%
Brc1ccc(-c2nnc3sc(CN4CCN(c5ccccc5)CC4)cn23)cc1	4.71%

SMILES	hERG current change (%, negative = inhibition) at 1uM
O=C(CN1C(=O)COc2ccccc21)N(Cc1ccccc1)Cc1ccccn1	3.75%
COc1ccc(/C=N/NC2=NS(=O)(=O)c3ccccc32)cc1OC(C)=O	11%
Cc1noc(NS(=O)(=O)c2ccc(N/C=C\C(=O)c3ccncc3)cc2)c1C	-3.24%
O=C1c2ccccc2C(Nc2ccc(F)c(Cl)c2)N1Cc1ccco1 (centres unmarked)	9%
CC1(C)Cc2cccc(OCC(=O)N3CCN(S(=O)(=O)c4ccccc4)CC3)c2O1	5.84%
c1ccc2c(N3CCCCC3)nc(N3CCCCC3)nc2c1	-3.29%
NC(=O)NCCN1CCN(c2ncc(C(F)(F)F)cc2Cl)CC1	-7.37%
CN(C)CCNc1ncnc2c1sc1nc(N3CCCC3)c3c(c12)CC(C)(C)OC3	10.9%
COC(=O)C1=C(c2ccc(OC(F)(F)F)cc2)C[C@@H]2CC[C@H]1N2C(=O)N1CCC(C)CC1	4.11%
COc1ccc2nc(NNC(=O)c3cc(=O)c4ccccc4o3)sc2c1	8.82%
Cc1cccc(Cn2cnc3c(NS(C)(=O)=O)c(C)c(C)cc32)c1	13%
Cc1cc(=O)oc(C)c1C(=O)NCC1CCCO1 (centres unmarked)	3.36%
CC1(c2ccccc2)CC(C)(C)N(C(N)=O)c2ccccc21 (centres unmarked)	15.2%
Cc1ccc(OCC(O)Cn2c(N)nc3c2c(=O)n(C)c(=O)n3C)cc1 (centres unmarked)	9.77%
CCOc1cc(NC(=O)CC(C)C)c(OCC)cc1NC(=O)CCn1nnc2ccccc21	10.2%
CCOc1ccc(N(CC(=O)N2CCc3ccccc32)S(=O)(=O)c2c(C)noc2C)cc1	-2.87%
COCCn1c(N/N=C(C)/C=C/c2ccccc2)nc2c1c(=O)[nH]c(=O)n2C	4.03%
O=c1c2ccccc2oc2cc(C#Cc3ccccn3)ccc12	15.6%
Cc1ccc(S(=O)(=O)NCCC(=O)NCc2ccccc2)cc1	7%
O=C1N/C(=N/S(=O)(=O)Cc2ccccc2)S/C1=C/c1ccc2c(c1)OCO2	5.17%
CC1=Nc2ccc(C)cc2/C1=C/c1c(N)n2nc(CC(=O)N3CCOCC3)sc2nc1=O	11.7%
COc1cccc(C(=O)N2CCC(n3nccc3NC(=O)C(OC)c3ccccc3)CC2)c1 (centres unmarked)	-4.12%
COc1ccc(/C=C/C(=O)Nc2nonc2NC(C)=O)cc1	15.5%

SMILES	hERG current change (%, negative = inhibition) at 1uM
C=CCN1C(=O)/C(=C/c2ccsc2)SC1=S	22.5%
CCSc1nsc(NC(=O)Nc2ccccc2OC)n1	9.7%
CCn1cc(/C=N\NC(=O)COc2cccc(C)c2C)c(C)n1	0.219%
COc1ccc(-n2c(Cc3ccccc3)nnc2SCC(=O)N2CCCc3ccccc32)cc1	-3.61%
Cc1cccc(OCCCC(=O)Nc2ccc(N3CCCCC3)cc2)c1C	1.12%
O=C(CCn1nnc2ccccc2c1=O)N[C@@H](Cc1ccccc1)C(=O)O	8.66%
Cc1cccc(NC(=O)CN2C(=O)N/C(=C/c3cc(C)n(-c4cccnc4)c3C)C2=O)c1	12.1%
O=C(N1CCOCC1)N1CCN(S(=O)(=O)N2CCOCC2)CC1	11.1%
O=C(c1ccncc1)N(Cc1cc2ccccc2[nH]c1=O)C1CCCCC1	6.99%
CC(C)Nc1c(N)c(=O)oc2ccccc12	8.29%
C[n+]1ccc(/C=N/Nc2nc(Cl)c(C#N)c(Cl)c2Cl)cc1.[Cl-]	11.2%
COc1ccc(OC)c(-n2c(-c3ccc(S(C)(=O)=O)cc3)cc(C=O)c2C)c1	8.73%
Cc1nonc1CC(=O)N1CCCC(C(=O)c2ccc(Cl)cc2)C1 (centres unmarked)	8.62%
Cc1ccc(NC2(C#N)C(=O)Nc3ccccc32)cc1 (centres unmarked)	10.8%
CSc1cccc(NC(=O)CSc2ccc(C)cc2)c1	7.76%
O=C(/C=C/Nc1ccc(F)c(Cl)c1)c1ccccc1	12.9%
CCC(=O)c1cn(CC(=O)Nc2cccc(C)c2)c2ccccc12	14%
O=C(Nc1ccc(F)c(F)c1)C1CCCN1S(=O)(=O)c1ccc(F)cc1 (centres unmarked)	12.9%
O=C(c1cc2ccccc2oc1=O)N1CCN(Cc2ccc3c(c2)OCO3)CC1	-20.8%
CCOC(=O)C1CCN(Cc2cc(=O)oc3cc(C)ccc23)CC1	-10.4%
